Where “and” joins values, the source holds several entries; their conditions need not be identical. Equal entries are not always repeated. Out of some 420,000 compounds screened, about 50,000 (12%) were called active. This list was built around the results that the source calls inconclusive (neither active nor inactive); the mix of calls is not that of the screen. Calls follow the shape of the dose curve; as a rule, active = well fitted inhibition curve with a large enough effect; inconclusive = small, poorly fitted or top-dose-only effect; inactive = flat fitted curve, though single readings scatter. Potencies of inconclusive entries are doubtful fits and often do not repeat.
experiment: qHTS for Inhibitors of human tyrosyl-DNA phosphodiesterase 1 (TDP1): qHTS in cells in presence of CPT; details: chicken DT40 Tdp1-/-;hTDP1 cells + 20 nM CPT, ATP luminescence, 48 h; activity change, negative = growth inhibition: at 46.2 µM (top of the series) unless noted; also: nearly all actives have a fitted effect of over 55% in size
In short: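 Cell growth measured by CellTiter-Glo luminescence after a minimum 48 h, 37 C compound exposure with 20 nM CPT in Tdp1-knockout DT40 cells stably expressing hTDP1, seeded 400/well; qHTS titration format.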
% is scaled to controls: 0 for no effect and ±100 for the full control effect; potency is read from the fitted curve at half-maximal effect; tags tell the direction and shape of the fitted curve.

Row | Compound | Potency | activity change, negative = growth inhibition
1 | O=C(Cc1ccccc1)NCC(=O)OCC(=O)c1ccc([N+](=O)[O-])cc1 | inconclusive: 20.6 µM [inhibitor, single point] | 
2 | Cc1ccc([N+](=O)[O-])cc1Nc1nc(N2CCCC2)nc(N2CCCC2)n1 | inconclusive: 23.1 µM [inhibitor, single point] | 
3 | O=C(Nc1ccc(Cl)cc1Cl)c1cc(S(=O)(=O)NCc2ccc3c(c2)OCO3)ccc1F | inactive | 
4 | COc1ccccc1OCC(=O)Nc1ccccc1C(=O)N1CCCCC1 | inactive | 
5 | Cc1ccc(-n2c(NN)nc3ccccc3c2=O)c(C)c1 | inconclusive: 18.4 µM [inhibitor, single point] | 
6 | CN(C)S(=O)(=O)c1cccc(NC(=O)Cc2ccc(-c3ccccc3)cc2)c1 | inconclusive: 25.9 µM [inhibitor, single point] | 
7 | Cc1ccc(Cn2c(CO)cnc2SCc2ccc(F)cc2)cc1 | active: 10.3 µM | 
8 | COC(=O)[C@@]12C[C@@H](CC(=O)N3CCN(C(=O)c4ccco4)CC3)C(=O)N(CCc3ccc(OC)c(OC)c3)C1=CCC(C)(C)C2 | inconclusive: 20.6 µM [inhibitor, single point] | 
9 | CCOc1ccc2c(c1)-c1c(ssc1=S)C(C)(C)N2 | inconclusive: 18.4 µM [inhibitor, single point] | 
10 | CCN(c1ccccc1)S(=O)(=O)c1cccc(C(=O)NCC(c2cccs2)N(C)C)c1 (stereo not drawn) | inconclusive: 29.1 µM [inhibitor, single point] | 
11 | CCOc1ccc(NC(=O)CN(C)C(=O)c2csc3c2CCCC3)cc1OCC | inconclusive: 29.1 µM [inhibitor, single point] | 
12 | O=[N+]([O-])c1ccc2cn(-c3ccccc3)nc2c1 | inconclusive: 29.1 µM [inhibitor, single point] | 
13 | O=C(COC(=O)c1ccc2c(=O)n3c(nc2c1)CCC3)Nc1ccc(OC(F)F)cc1 | inactive | 
14 | COC(=O)C1=C(C#N)NC(C)=C(C(=O)OC(C)C)C1c1cccc([N+](=O)[O-])c1 (stereo not drawn) | active: 29.9 µM | 
15 | COc1ccccc1Cn1cc(C(=O)c2ccccc2)c(=O)c2cc(OC)c(OC)cc21 | inconclusive: 29.1 µM [inhibitor, single point] | 
16 | O=C(COC(=O)Cn1cc(C(F)(F)F)ccc1=O)NCc1ccccc1 | inconclusive: 23.1 µM [inhibitor, partial curve] | 
17 | COc1ccc(-c2cc(C(=O)Nc3cc(C(F)(F)F)ccc3Cl)no2)cc1 | inactive | 
18 | Cc1cc(-c2ccc(C)c(S(=O)(=O)NCCCN3CCN(c4ccccc4F)CC3)c2)on1 | inconclusive: 20.6 µM [inhibitor, single point] | 
19 | CCCOc1ccc(OC(=O)Cc2ccc(OC)c(S(=O)(=O)N3CCOCC3)c2)cc1 | inconclusive: 29.1 µM [inhibitor, single point] | 
20 | COc1ccc(C(=O)C(=O)N2CCN(c3ccc(C)cc3)CC2)cc1OC | inconclusive: 29.1 µM [inhibitor, single point] | 
21 | Cc1ccc(-n2nnc3c(=O)n(CC(=O)NCc4ccco4)cnc32)cc1 | inconclusive: 29.1 µM [inhibitor, single point] | 
22 | Cc1nn(CCC(=O)Nc2ccc(Cl)cc2)c(C)c1S(=O)(=O)N1CCCCC1 | active: 20.6 µM | 
23 | O=C(NCc1cc(Cl)cc(Cl)c1)c1ccc2nc([C@@H]3O[C@H](CO)[C@H](O)[C@H](O)[C@H]3O)[nH]c2c1 | inactive | 
24 | CCOc1ccc(C(=O)Nc2ccc(-c3cc4ccccc4oc3=O)cc2)cc1Br | inconclusive: 4.61 µM [inhibitor, partial curve] | 
25 | Cc1noc(C)c1C(=O)OC(C)C(=O)N(C)c1ccccc1 (stereo not drawn) | inactive | 

Row | Compound | Potency | activity change, negative = growth inhibition
26 | Cc1ccc(-n2c(C)nc3c(cnn3-c3ccc(F)cc3)c2=O)cc1 | active: 18.4 µM | 
27 | Cn1cc(Cl)c(C(=O)NC(=S)Nc2sc3c(c2C#N)CCCCC3)n1 | inconclusive: 29.1 µM [inhibitor, single point] | 
28 | Cc1ccc2c(CC(=O)Nc3nc(C)cs3)coc2c1 |  | inconclusive: -33.2% [inhibitor]
29 | c1csc(CNc2nc3ccccc3n2CCN2CCOCC2)c1 | inactive | 
30 | COC(=O)[C@H](NC(=O)c1cc(-c2ccccc2)nc2ccccc12)c1ccccc1 | inactive and inconclusive: 18.4 µM [inhibitor, single point] | 
31 | COc1ccc(/C=C2/SC(=O)N(CCC(=O)Nc3ccc(S(=O)(=O)Nc4nccs4)cc3)C2=O)cc1 | inconclusive: 23.1 µM [inhibitor, partial curve] | 
32 | CCCCN1C(=O)C(CC(=O)NCC2CCCCC2)CC(C(=O)N(C)C)=C1C (stereo not drawn) | inactive | 
33 | CCn1c(O)c(N=NC(=O)Cn2ccc(C(F)(F)F)n2)c2ccccc21 | inactive | 
34 | COc1cccc(CNC(=O)c2ccc(NC(=O)C3=CSCCO3)cc2)c1 | inconclusive: 29.1 µM [inhibitor, single point] | 
35 | Cc1cnc(NC(=O)Nc2ccc(Cl)cc2)s1 | inconclusive: 29.1 µM [inhibitor, single point] | 
36 | CC1CCN(C(=O)C2CCCN(S(=O)(=O)c3cccc4nsnc34)C2)CC1 (stereo not drawn) | inconclusive: 20.6 µM [inhibitor, single point] | 
37 | CCc1ccc(NC(=S)NC2CCN(Cc3ccccc3)CC2)cc1 | active: 7.31 µM | 
38 | CN(CCN1CCc2ccccc2C1)Cc1nc(Cc2ccccc2F)no1 | inactive | 
39 | COc1ccc(C(CNC(=O)C(C)Oc2ccc(Br)cc2)N2CCCCC2)cc1 (stereo not drawn) | active: 18.4 µM | 
40 | Cc1ccc(C(=O)N(CCc2ccccc2)Cc2ccccc2)cc1S(=O)(=O)N1CCOCC1 | active: 14.6 µM | 
41 | CC1CC(OC(=O)c2ccccc2O)CC(C)(C)C1 (stereo not drawn) | inactive | 
42 | O=C(COc1ccc(C(=O)c2ccccc2)cc1)NC1CCCCC1 | inactive | 
43 | Cc1cc(OCCCC(=O)NCCc2ccccn2)ccc1Cl | inconclusive: 29.1 µM [inhibitor, single point] | 
44 | O=C(c1ccncc1)N1CCN(c2cc(-c3ccccc3)nc3cc(-c4cccc(Cl)c4)nn23)CC1 | active: 11.6 µM | 
45 | O=C(NCc1ccccc1)c1cccn1-c1nnc(N2CCCCC2)s1 | inconclusive: 18.4 µM [inhibitor, single point] | 
46 | Cc1ccc(-n2ncc3c(=O)n(Cc4cccc(Cl)c4)cnc32)cc1C | inactive | 
47 | Cc1ccnc(N2C(=O)c3ccccc3C2Nc2ccccc2Cl)c1 (stereo not drawn) | inconclusive: 29.1 µM [inhibitor, single point] | 
48 | O=C(Nc1ccc(Oc2ccc(NC(=O)Nc3ccccc3Cl)cc2)cc1)Nc1ccccc1Cl | active: 18.4 µM | 
49 | CCOC(=O)c1cnc2c(Cl)c(Cl)ccc2c1N1CCN(C)CC1 | inactive | 
50 | COc1ccc(CCNC(=O)C2CCCN(S(=O)(=O)c3ccc(OC)cc3)C2)cc1 (stereo not drawn) | inactive | 

Row | Compound | Potency | activity change, negative = growth inhibition
51 | COc1cccc2c1O/C(=N\O)C(C(=O)Nc1ccc(C)cc1)C2 (stereo not drawn) | active: 5.8 µM | 
52 | CC(C)=CCC/C(C)=C/CNC(=O)C[C@H]1C[C@H](C(=O)N(C(C)C)C(C)C)[C@@]2(C)c3[nH]c4cc(CCC(=O)N(C)C)ccc4c3CCN2C1=O | active: 10.3 µM | 
53 | COc1cc(OC)c(NC(=O)C2=C(C)C(=O)OC23CCN(C(C)=O)CC3)cc1Cl | inactive | 
54 | CC12COC3(C(=O)Nc4ccccc4F)CC1CCC32C (stereo not drawn) | inactive | 
55 | Cc1ccc2c(CN3CCN(S(=O)(=O)c4ccc(Cl)cc4)CC3)cc(=O)oc2c1C | inconclusive: 29.1 µM [inhibitor, single point] | 
56 | CCOc1ccccc1CNC(=O)c1cnn(-c2ccc(C)cc2)c1-n1cccc1 | inconclusive: 23.1 µM [inhibitor, single point] | 
57 | Cc1ccc(-c2nnn(CC(=O)N(CC(=O)NC3CCCCC3)c3ccc(F)c(Cl)c3)n2)o1 | active: 13 µM | 
58 | CCOC(=O)c1ccc(NS(=O)(=O)c2ccc(-c3coc(C)n3)cc2)cc1 | inactive | 
59 | CC(C)c1onc(C(=O)NCc2ccc(Cl)cc2)c1[N+](=O)[O-] | inconclusive: 16.4 µM [inhibitor, single point] | 
60 | Cc1ccc(NC(=O)Cc2csc(-c3ccccc3)n2)cc1F | inactive | 
61 | CCOc1ccc(C(C)NC(=O)Nc2ccccc2C(=O)OC)cc1 (stereo not drawn) | inconclusive: 18.4 µM [inhibitor, single point] | 
62 | O=C(CSCC(=O)NN=Cc1ccccc1O)NN=Cc1ccccc1O | active: 5.8 µM | 
63 | COc1ccc(NC(=O)CCCOc2cc(=O)n(C)c3ccccc23)c(OC)c1 | inconclusive: 29.1 µM [inhibitor, single point] | 
64 | COc1ccc2c(c1)sc(=NC(=O)CS(=O)(=O)c1ccc(F)cc1)n2C | inconclusive: 23.1 µM [inhibitor, single point] | 
65 | COC(=O)Cc1c(O)ccn(Cc2cccc(C(F)(F)F)c2)c1=O | inactive | 
66 | C/C(=N\Nc1nc2ccccc2[nH]1)c1ccc2c(c1)OCCO2 | inconclusive: 29.1 µM [inhibitor, single point] | 
67 | Cc1ccc(NC(=O)Cn2cnc3c(oc4ccccc43)c2=O)cc1Cl | inactive | 
68 | COc1ccc(N2CCOCC2)c(NC(=O)c2ccc(Br)o2)c1 | inconclusive: 16.4 µM [inhibitor, single point] | 
69 | CCOC(=O)Cc1csc(NC(=O)CSc2nc(C)cc(=O)[nH]2)n1 | active: 23.1 µM | 
70 | COc1ccc(-c2nnc(SCc3nnc(-c4cccs4)o3)n2CC2CCCO2)cc1 (stereo not drawn) | inconclusive: 29.1 µM [inhibitor, single point] | 
71 | Cc1cc(C)c2cccc(NC(=S)NC(=O)c3ccccc3)c2n1 | active: 15.8 µM | 
72 | CCN(CC(=O)NCC(=O)Nc1cccc(C)c1C)Cc1ccccc1 | inactive | 
73 | CC(Nc1nc(-c2cccnc2)nc2ccccc12)c1ccc(F)cc1 (stereo not drawn) | active: 25.9 µM | 
